Source: the RNAGym collection of RNA variant scans (doi:10.1093/nar/gkz1192)
The source gives no read counts; variants with many changes may rest on few reads.

B1: CPEB3 Ribozyme (parent)
chain: UAACAGGGGGCCACAGCAGAAGCGUUCACGUCGCAGCCCCUGUCAGAUUCUGGUGAAUCUGCGAAUUCUGCUGUAUAUCUC

Variants of: B1
Test: self-cleavage, relative activity (ratio to wild type); higher = more cleavage; in vitro, sequencing
Method in brief: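 For each CPEB3 ribozyme variant, relative activity is its cleaved/total read fraction divided by the unmutated ribozyme's. Barcoded error-prone PCR libraries were transcribed by T7 RNA polymerase (5 hours, 37°C) and held in DNase I for 15 min before an EDTA stop, with cleavage occurring throughout. Template-switching reverse transcription and Illumina sequencing were used to read the RNAs. A 5-read minimum applied, and results are the mean of three batches.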
Work on A13U U43A A64U U67C yielded a self-cleavage of 0.26. A13U U43A C59G U66C gave a self-cleavage of 0.18. A13U U43A G53A C68A U80C showed a self-cleavage of 0.35. For A13U U43A U49C U78C, the self-cleavage was 0.49. For A13U U43A U51C U72C U76C, the self-cleavage was 0.76. A13U U43A U66C gave a self-cleavage of 0.68. In the case of A13U U43A U67G C81U, the self-cleavage is reported as 0.38. Variant A13U U43A U69C U72C U76C has a self-cleavage of 0.4. A13U U43C A57G showed a self-cleavage of 0.34. For A13U U43C A57U, the self-cleavage was 0.17. Work on A13U U43C A64G yielded a self-cleavage of 0.34. Variant A13U U43C A65G U78A has a self-cleavage of 0.12. In the case of A13U U43C G53C U54C A56G A75G, the self-cleavage is reported as 0.76. In the case of A13U U43C U51A U72C, the self-cleavage is reported as 0.72. For A13U U43C U51C C71U, the self-cleavage was 0.18. Variant A13U U43C U58A has a self-cleavage of 0.13. In the case of A13U U43G A47G, the self-cleavage is reported as 0.22. With A13U U48C A56G A64U the self-cleavage was 0.18. With A13U U48C A56G U72A the self-cleavage was 0.31. With A13U U48C C71A the self-cleavage was 0.11. For A13U U48C G61U U67C, the self-cleavage was 0.35. Work on A13U U48C U51C U74C yielded a self-cleavage of 1. A13U U48C U54C gave a self-cleavage of 0.67. A13U U48C U74C gave a self-cleavage of 0.95. With A13U U48C U80C the self-cleavage was 0.98. For A13U U49A U58C, the self-cleavage was 0.19. A13U U49A U78C gave a self-cleavage of 0.85. A13U U49C A64G A75G gave a self-cleavage of 0.19. In the case of A13U U49C A64U, the self-cleavage is reported as 0.11. Work on A13U U49C U51A yielded a self-cleavage of 0.56. In the case of A13U U49C U51A U67C U76C, the self-cleavage is reported as 0.3. Variant A13U U49C U54A U60C has a self-cleavage of 0.18. Variant A13U U49C U54C A64U has a self-cleavage of 0.11. For A13U U49C U72C, the self-cleavage was 0.4. With A13U U51C A64G the self-cleavage was 1.14. A13U U51C C62U U69A U72C U76C showed a self-cleavage of 0.42. Work on A13U U51C U54C U60C yielded a self-cleavage of 0.45. With A13U U51C U66C the self-cleavage was 0.39. A13U U51C U67C U76A U80C gave a self-cleavage of 0.62. In the case of A13U U51C U69A, the self-cleavage is reported as 0.55. In the case of A13U U51C U72A, the self-cleavage is reported as 0.83. With A13U U51C U80C the self-cleavage was 1.26. For A13U U54A A56U U74C, the self-cleavage was 1.24. Work on A13U U54A A57G yielded a self-cleavage of 1.22. A13U U54A A75G showed a self-cleavage of 1.25. A13U U54A U80C gave a self-cleavage of 1.13. Variant A13U U54C U60A U72C C79A has a self-cleavage of 0.8. Work on A13U U54C U67C yielded a self-cleavage of 0.25. In the case of A13U U54C U72C U74C U80C, the self-cleavage is reported as 1.22. In the case of A13U U54C U72G A75U, the self-cleavage is reported as 1.17. A13U U54G U69C gave a self-cleavage of 0.26. A13U U58A A65C U80C C81U gave a self-cleavage of 0.14. A13U U58A G73U U80C gave a self-cleavage of 1.1. Work on A13U U58C U72A yielded a self-cleavage of 0.15. A13U U58C U74A gave a self-cleavage of 0.6. With A13U U58C U76C the self-cleavage was 0.78. For A13U U58C U78C, the self-cleavage was 0.44. A13U U58G A77U showed a self-cleavage of 0.39. With A13U U58G U67C the self-cleavage was 0.36. In the case of A13U U60A A64U U76C, the self-cleavage is reported as 0.31. Variant A13U U60A U80C has a self-cleavage of 0.99. Variant A13U U60C U66C U74C has a self-cleavage of 0.27. A13U U60C U78A gave a self-cleavage of 0.98. Variant A13U U66C U67A has a self-cleavage of 0.27. In the case of A13U U66C U80C, the self-cleavage is reported as 0.53. For A13U U67A U69C, the self-cleavage was 0.25. In the case of A13U U67C U69C, the self-cleavage is reported as 0.18. Work on A13U U67C U72C yielded a self-cleavage of 0.23. With A13U U67C U78C the self-cleavage was 0.34. A13U U69C G70A showed a self-cleavage of 0.21. Work on A13U U72C U76C C81U yielded a self-cleavage of 1.19. Variant A13U U74A U80A has a self-cleavage of 1.29. In the case of A13U U74C U78C, the self-cleavage is reported as 1.27. Variant A13U U76C A77U has a self-cleavage of 1.12. In the case of C14A A15C U43C U51G A77G, the self-cleavage is reported as 0.6. For C14A A15G A28C, the self-cleavage was 0.56. C14A A15G G33C G61A G70A gave a self-cleavage of 0.23. Work on C14A A15G G46A U74C yielded a self-cleavage of 0.12. For C14A A15G U25C U60C, the self-cleavage was 0.22. C14A A15G U25G C27U U51C showed a self-cleavage of 0.2. Variant C14A A15G U31G A35G C62U has a self-cleavage of 0.38. C14A A15U A21G C44A A56G U66C C71U showed a self-cleavage of 0.05. C14A A15U A45G gave a self-cleavage of 0.4. For C14A A15U C38U U54C G55A A65G, the self-cleavage was 0.05. Work on C14A A15U U25C U72C U80A yielded a self-cleavage of 0.28. For C14A A15U U43A U54C U60A U66A, the self-cleavage was 0.2. C14A A18C A64G A77G gave a self-cleavage of 0.16. C14A A18G A47U A56G U69C gave a self-cleavage of 0.57. In the case of C14A A18G U49C A64G G73A, the self-cleavage is reported as 0.2. In the case of C14A A18U A45G, the self-cleavage is reported as 0.33. For C14A A18U C62G, the self-cleavage was 0.19. In the case of C14A A20C C44A, the self-cleavage is reported as 0.43. C14A A20C G24U U26A U31C U41C A64G gave a self-cleavage of 0.05. In the case of C14A A20C U54A U76C, the self-cleavage is reported as 0.41. For C14A A20G A35G A45G U51C G63C U69C, the self-cleavage was 0.26. With C14A A20G A35U U41A U54A U58C the self-cleavage was 0.06. In the case of C14A A20G C27A C38U, the self-cleavage is reported as 0.22. With C14A A20G U26C A45G A56U U66A the self-cleavage was 0. C14A A20G U49G showed a self-cleavage of 0.7. C14A A20U U43C G46A U69C gave a self-cleavage of 0.06. Work on C14A A21G A28G A35G U41C U58C yielded a self-cleavage of 0.26. Work on C14A A21G A65G U66C U80C yielded a self-cleavage of 0.22. Work on C14A A21G G63C U78C yielded a self-cleavage of 0.41. For C14A A28G A35U A57G U72C U80C, the self-cleavage was 0.38. In the case of C14A A28U C50U, the self-cleavage is reported as 0.86. For C14A A28U U54A, the self-cleavage was 1.01. In the case of C14A A35U A56G A64U U78C, the self-cleavage is reported as 0.11. C14A A45C C62A A64G A75G gave a self-cleavage of 0.07. C14A A45G A47U U60C G63C U69C gave a self-cleavage of 0.02. With C14A A45G A64G U69A U80C the self-cleavage was 0.21. Work on C14A C17A C32U yielded a self-cleavage of 0.31. C14A C17U U26C showed a self-cleavage of 0.37. Variant C14A C17U U49C G53U A57G A64C has a self-cleavage of 0.1. In the case of C14A C23A U43A U48C A65G, the self-cleavage is reported as 0.09. C14A C32U C50U U54C A57C gave a self-cleavage of 0.06. With C14A C32U G42A U74C A77G the self-cleavage was 0.04. C14A G19A U60A A65G U76A U80G gave a self-cleavage of 0.02. Work on C14A G33A U49G U69C A75G U78C yielded a self-cleavage of 0.06. C14A G63A U72C gave a self-cleavage of 1.08. Work on C14A U25A U43C U60A yielded a self-cleavage of 0.12. In the case of C14A U25C A28G U74C U80A, the self-cleavage is reported as 0.15. With C14A U25C A64U C68A the self-cleavage was 0.16. For C14A U25C C27A, the self-cleavage was 0.15. In the case of C14A U25C U48A A57G, the self-cleavage is reported as 0.15. C14A U25C U72A U74C U80A gave a self-cleavage of 0.06. C14A U26A A47G gave a self-cleavage of 0.88. In the case of C14A U26A A64C U69A, the self-cleavage is reported as 0.29. With C14A U26C A57G the self-cleavage was 0.68. For C14A U26C U80C, the self-cleavage was 0.94. Work on C14A U31A U49A U74C A75U yielded a self-cleavage of 0.69. Variant C14A U41A U43C U49C U58A U72A has a self-cleavage of 0.08. C14A U41C A57G U66A showed a self-cleavage of 0.57. Variant C14A U41C G70A U72C has a self-cleavage of 0.4. With C14A U41C U80A the self-cleavage was 1.19. In the case of C14A U43A U49G, the self-cleavage is reported as 0.78. For C14A U43C U60A U69A, the self-cleavage was 0.23. With C14A U43C U74C the self-cleavage was 1.15. In the case of C14A U49C A75G, the self-cleavage is reported as 0.25. Variant C14A U49C G70U U78C has a self-cleavage of 0.11. Work on C14A U51C U58C U66C U76C yielded a self-cleavage of 0.24. For C14A U60C U67A, the self-cleavage was 0.24. With C14A U60C U67C U72C the self-cleavage was 0.16. Work on C14G A15U U26C yielded a self-cleavage of 0.29. With C14G A15U U51G the self-cleavage was 0.7. For C14G A15U U76C, the self-cleavage was 0.16. For C14G A18G U60C, the self-cleavage was 0.53. Work on C14G A21G A45U yielded a self-cleavage of 0.21. Variant C14G A21G G24C U26C U43C has a self-cleavage of 0.07. In the case of C14G A21G U69G U76A, the self-cleavage is reported as 0.29. With C14G A21U A35G the self-cleavage was 1.18. For C14G A35G U43G A65G, the self-cleavage was 0.18. Work on C14G A45U A56U yielded a self-cleavage of 0.19. Work on C14G A45U U48C yielded a self-cleavage of 0.14. C14G A56U U69A showed a self-cleavage of 0.21. C14G C23U C40U U49C A56G gave a self-cleavage of 0.09. C14G C40G U74C showed a self-cleavage of 0.29. Variant C14G G42U U51C has a self-cleavage of 0.14. C14G U25C A56U U78C showed a self-cleavage of 0.05. In the case of C14G U25C U51C U66C, the self-cleavage is reported as 0.16. For C14G U41A U43G, the self-cleavage was 0.07. C14G U41C U58A A65G C79A gave a self-cleavage of 0.24. For C14G U43C A47G A64U, the self-cleavage was 0.12. C14U A15G A28U U41C A57U showed a self-cleavage of 0.15. In the case of C14U A15G U41C U48C, the self-cleavage is reported as 0.96. Work on C14U A15U A18U A20G U26A A56G yielded a self-cleavage of 0.09. For C14U A15U A20G U25C A28U, the self-cleavage was 0.22. C14U A15U A56G gave a self-cleavage of 0.75.
